The full ranking holds about 110,000 compounds; the median of “z-score” is about -0.1, and the highest 2% start at about 2. The list shows a part of the results. Active and inactive are the calls of the source.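 The calls were made as follows: active = z-score in the third read window above 3 or below -3; inactive = the rest.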
Target: Metabotropic glutamate receptor 8 (Rattus norvegicus) (UniProt P70579)
Test: mGluR8 Gi/Go-coupled signaling modulation – cell-based, rat, thallium flux, HTS, primary screen (AID 488969)
Conditions: HEK293 rat mGluR8, GIRK (G protein-gated inwardly rectifying potassium channel) thallium flux, FluoZin2; at 10 µM; stronger effect = higher value; submaximal glutamate (EC20) added with thallium

Sequence of UniProt P70579 (P70579 whole entry, looked up): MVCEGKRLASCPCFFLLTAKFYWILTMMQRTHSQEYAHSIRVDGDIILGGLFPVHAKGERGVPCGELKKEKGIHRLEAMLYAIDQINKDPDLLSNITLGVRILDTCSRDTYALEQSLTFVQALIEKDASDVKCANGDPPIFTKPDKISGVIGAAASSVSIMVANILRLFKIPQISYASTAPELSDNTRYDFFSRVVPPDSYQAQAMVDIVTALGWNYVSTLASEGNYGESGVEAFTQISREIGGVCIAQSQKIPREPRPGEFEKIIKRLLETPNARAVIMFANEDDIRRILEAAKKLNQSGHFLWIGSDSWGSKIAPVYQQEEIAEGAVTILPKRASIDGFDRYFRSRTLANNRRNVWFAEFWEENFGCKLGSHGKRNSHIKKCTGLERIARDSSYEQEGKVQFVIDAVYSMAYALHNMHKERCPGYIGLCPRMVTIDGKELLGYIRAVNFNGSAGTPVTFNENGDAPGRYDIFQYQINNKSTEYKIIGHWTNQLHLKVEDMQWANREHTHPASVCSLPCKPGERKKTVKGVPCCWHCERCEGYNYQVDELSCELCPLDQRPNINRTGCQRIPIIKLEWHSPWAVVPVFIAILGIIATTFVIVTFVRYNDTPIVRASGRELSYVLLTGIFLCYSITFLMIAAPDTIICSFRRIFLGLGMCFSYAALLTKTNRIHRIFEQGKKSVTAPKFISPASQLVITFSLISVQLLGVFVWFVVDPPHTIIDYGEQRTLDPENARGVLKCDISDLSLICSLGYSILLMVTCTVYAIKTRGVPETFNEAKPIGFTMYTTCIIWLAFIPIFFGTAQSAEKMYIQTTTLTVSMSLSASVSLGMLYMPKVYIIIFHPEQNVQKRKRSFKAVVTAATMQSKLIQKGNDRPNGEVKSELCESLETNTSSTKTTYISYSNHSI

SMILES	z-score
O=C(N/N=C/C=C/c1ccccc1)C1CC1c1ccccc1 (stereo not given)	0.201
COc1ccc(NC(=O)c2ccccc2NC(=O)NC2CCCCC2)cc1	-1.06
CCc1cc2c(=O)c(-c3ccc4c(c3)OCCO4)coc2cc1OS(C)(=O)=O	1.1
CCOC(=O)c1ccc(-c2ccc(CO)o2)cc1	-0.45
O=C(CCc1ccccc1)NNC(=O)c1ccccc1Br	-0.00288
COc1cccc(/C=C/C(=O)OCC(=O)Nc2cc(C(F)(F)F)ccc2Cl)c1	-0.177
COCCn1c(SCC(=O)N2CCCC2)nnc1-c1ccoc1C	0.0693
CCCCSc1ccc2nc(-c3ccc(C#N)cc3)cn2c1	-0.0636
CCCOc1ccc(/C=N/NC(=O)C(=O)Nc2ccccn2)cc1	active: 3.92
N#Cc1nc(-c2ccc(OCc3ccc(Cl)cc3)cc2)oc1NCCCn1ccnc1	0.281
Cc1cc(C)nc(SCc2ccc(C(=O)NNC(=O)Nc3cccc(Cl)c3)cc2)n1	0.418
CCOC(=O)C1CCCc2c1[nH]c1c(C(N)=O)cccc21 (stereo not given)	-0.185
Cc1ccc(N(C(=O)C(F)(F)F)C(C(=O)NC2CCCCC2)c2cccs2)cc1 (stereo not given)	-0.0699
O=C(Nc1ccccc1-c1nnn(CC(=O)N2CCN(c3ccccc3)CC2)n1)c1cccs1	-0.424
Nc1c(C(=O)O)sc2nc(-c3ccccc3)c3c(c12)CCCC3	0.595
COc1cccc2c1C(=O)c1ccc3ccccc3c1C2=O	-0.00661
N#CC12C(N)=NC3(OCCO3)C1(C#N)C1=C(CCC1)NC2c1ccccc1 (stereo not given)	0.0587
COc1cc(NC(=O)CSc2nnc(Cn3nnc4ccccc43)n2C)cc(OC)c1	0.0173
COc1ccccc1C(=O)Nc1sc2c(c1C(=O)NCc1ccco1)CCCC2	-0.436
COC(=O)c1sc2ccccc2c1-n1cccc1C(=O)C(=O)Nc1ccc(OC)cc1	-0.157
Cc1nc(COC(=O)c2c(C)nn(-c3ccccc3)c2C)cs1	-1.35
COCCNC(=O)CCSc1nc(-c2ccc(OC)cc2)cc(C(F)(F)F)n1	-0.54

SMILES	z-score
COc1ccc(-n2sc3c(c2=S)-c2cc(OC)ccc2NC3(C)C)cc1	-0.291
Cc1cccnc1NC(=S)NC(=O)/C=C/c1ccco1	0.37
COC(=O)CSc1nc2cc(C)ccc2cc1C#N	-0.507
O=C(NCc1nc2ccccc2[nH]1)c1cccc(S(=O)(=O)N2CCOCC2)c1	0.567
CC1CCCN(c2cc3c(cc2[N+](=O)[O-])C(=O)N(c2ccccc2)C3=O)C1 (stereo not given)	1.45
CC(C)OC(=O)C(NC(=O)c1ccccc1)=C1CCCCC1	1.13
Cc1nc2ccccn2c1C(=O)NN	2.34
Cc1ccc(SCCNC(=O)C(C)C)cc1	0.141
CN(C)S(=O)(=O)N1CCN(C(=O)c2ccccc2)CC1	-0.0976
CN(C)S(=O)(=O)c1ccc(C(=O)N2CCOCC2)cc1	-0.081
Oc1ccccc1/C=N/n1cnn(Cc2ccccc2Cl)c1=S	-0.192
O=C(Cn1nc(-c2ccccc2)c2ccccc2c1=O)Nc1ccc2c(c1)nc1n2CCOC1	-0.289
CCOC(=O)N1CCN(C(=O)c2cc(OC)cc(OC)c2)CC1	0.429
CCOC(=O)C1=C(CNCc2ccc(C)cc2)NC(=O)NC1c1cc(C)ccc1C (stereo not given)	0.326
CN1/C(=C\C(=O)COC(=O)CN2C(=O)C3CC=CCC3C2=O)C(C)(C)c2ccccc21 (stereo not given)	0.537
COC(=O)c1ccc(Cl)c(NC(=O)Cc2ccccc2[N+](=O)[O-])c1	-0.377
CC(C)NC(=O)c1onc(CSc2ccccc2F)c1C(=O)O	-0.206
COc1ccc(/C=C/C(=O)OCC(=O)N2CC(=O)Nc3ccccc32)cc1	-0.658
O=C(NC12CC3CC(CC(C3)C1)C2)N1CCN(S(=O)(=O)c2ccc(Cl)cc2)CC1	-0.746
CCCCCC(=O)Nc1ccccc1N1CCOCC1	-0.386
Fc1ccc2c(c1)C(c1ccc(N3CCOCC3)cc1)=NNC(c1cccs1)=N2	-0.0523
Cc1cc(SCC(=O)c2cc(C)n(C)c2C)nc2ccccc12	-0.0351

SMILES	z-score
Cc1cc(C(F)(F)F)n2ncc(-c3ccccc3)c2n1	0.117
O=C(Nc1cccc2nsnc12)c1ccc(-c2cccc(Cl)c2)o1	-0.205
COc1ccc(C(=O)Nc2ccc3c(c2)OCCO3)cc1	-0.168
Cc1ccc(C(=O)N/N=C\c2ccc(Br)o2)o1	-0.541
CN(C(=O)N1CCN(c2ccccn2)CC1)c1ccccc1	0.828
CCOC(=O)c1c(-c2ccc(C)o2)csc1NC(=O)COC(=O)c1cccs1	0.191
CCCCOC(=O)/C=C/c1c(C)[nH]c(=O)[nH]c1=O	0.829
Cc1ccc(S(=O)(=O)c2nc(Nc3ccccc3)sc2Cl)cc1	-0.00279
CCOc1ccc(/C(O)=C2/C(=O)C(=O)N(CCN(CC)CC)C2c2ccco2)cc1 (stereo not given)	-0.086
CN(C)CCCCNCCCNC(=O)/C=N\O	-0.279
CCOC(=O)CSc1nnc(CNC(=O)c2cccc(C)c2)n1-c1ccccc1OC	0.0317
O=C(Oc1ccc(OC(=O)c2ccco2)c(S(=O)(=O)c2ccc(Br)cc2)c1)c1ccco1	0.811
O=C(CS(=O)(=O)Cc1ccccc1)N1CCN(c2cccc(C(F)(F)F)c2)CC1	0.101
CCCCc1nc2ccccc2n2cc3c(=O)n(C)c(=O)n(C)c3c12	-0.449
COc1ccc(C2CC(C(F)(F)F)n3ncc(C(=O)NCc4cccnc4)c3N2)cc1OC (stereo not given)	-0.109
CCC(CCC(=O)Nc1cccc(C(=O)O)c1)C(=O)O (stereo not given)	0.0473
COc1ccc(NS(=O)(=O)c2cc(NC(=O)c3ccc(F)cc3)ccc2OC)cc1	-0.511
C=CCn1c(SCC(=O)Nc2nccs2)nnc1-c1ccco1	-0.146
CCn1c(SCC(=O)NCc2cccs2)nnc1-c1cccs1	0.0957
CCn1c(SCC(=O)Nc2ccc(C)cc2)nc2nc3c(cc2c1=O)CCCC3	0.307
N#CC1=C(N)OC2=C(CC/C2=C\c2ccc(F)cc2)C1c1ccc(F)cc1 (stereo not given)	-0.231
O=c1c2cc(N3CCOCC3)ccc2[nH]c(=S)n1CCCN1CCCCC1	0.262

SMILES	z-score
C=CCNC(=O)COC(=O)c1ccc(Cl)c(S(=O)(=O)N(Cc2ccccc2)c2ccccc2)c1	-0.604
CCOC(=O)c1c(NC(=O)C2c3ccccc3Oc3ccccc32)sc(C(N)=O)c1C	-0.282
O=C1c2ccccc2NC2CCCCCN12 (stereo not given)	-0.883
O=C(Nc1ccon1)c1ccc(OC2CCCC2)cc1	-0.108
Cc1ccc(NC(=O)C(Nc2ccccc2)c2ccccc2)cc1 (stereo not given)	-0.923
Cc1cc(C)cc(OCC(=O)NC2CCCc3ccccc32)c1 (stereo not given)	-0.1
O=C(O)CCC(=O)Nc1ccccc1N1CCOCC1	-1.41
O=C(O)c1cccc(-n2cnnn2)c1	-0.667
COc1ccc(-c2nnc(-c3cc4c(ccc5ccccc54)oc3=O)o2)cc1	-0.09
c1ccc(-n2c(-c3ccncc3)nnc2N2CCOCC2)cc1	0.16
Cn1c(=O)[nH]c(=O)c2c1nc(Sc1ncccn1)n2CCCc1ccccc1	0.89
Cn1c(N2CCC(C(N)=O)CC2)nc2c1c(=O)n(Cc1cccc(Br)c1)c(=O)n2C	-1.26
Cc1ccc(CN2C(=O)CCC2C(=O)NCc2ccco2)cc1 (stereo not given)	0.173
c1csc(-c2nc3ccccc3[nH]2)c1	-0.315
CC(C)(C)c1ccc(S(=O)(=O)O/N=C2/CCCCC2c2ccc([N+](=O)[O-])cc2[N+](=O)[O-])cc1 (stereo not given)	-0.305
CCN1C(=O)c2cccc3cccc1c23	-0.389
Cc1cc2cc(CCNC(=O)c3ccc(Br)o3)c(=O)[nH]c2cc1C	-0.493
CCOc1ccccc1NC(=O)CCN(c1ccc(C)cc1)S(=O)(=O)c1ccccc1	-0.5
Oc1cccc(C=NCc2ccccc2)c1	-0.687
N#Cc1nc(COc2ccccc2Cl)oc1N1CCCCCC1	0.0523
COc1cc2c(C#N)c(N3CCc4ccccc4C3)nc(N)c2c(N)n1	-0.142
CSCCC(NS(=O)(=O)c1ccc2c(c1)oc(=O)n2C)C(=O)NC1CCCc2ccccc21 (stereo not given)	0.148

SMILES	z-score
COC(=O)c1c(NC(=O)Cn2cnc([N+](=O)[O-])n2)sc2c1CCC(C)C2 (stereo not given)	-0.0716
O=S1(=O)N=C(N/N=C/c2ccccn2)c2ccccc21	-0.0441
Cc1ccc(C2=N/C(=C\c3cccnc3)C(=O)O2)cc1	-0.75
CCSc1nnc(NC(=O)CSc2nnc(-c3c[nH]c4ccccc34)n2CC)s1	-1.46
COc1ccccc1NS(=O)(=O)c1ccc(N/N=C(\C)C(C)C)c([N+](=O)[O-])c1	-0.662
COc1ccc(Cn2c(SCc3ccccc3C)nc3cc(OC)c(OC)cc3c2=N)cc1	0.159
Cc1nnc(NC(=O)c2c(F)cccc2F)s1	-0.476
CCOC(=O)N1CCN(c2ccc(C(=O)c3ccccc3)cc2F)CC1	-1.65
O=C(CN1CCN(c2nc(-c3ccccc3)cs2)CC1)NCc1ccc2c(c1)OCO2	-0.644
COc1cc(C)c(-c2cc(C(=O)O)c(C)o2)cc1C(C)C	-0.106
Cc1nc(NCc2ccco2)c2oc3ccccc3c2n1	-1.44
COc1ccc2c(C)cc(N3CCOCC3)nc2c1	0.0241
COC(=O)C1(C(F)(F)F)N=C(N(C)C)OC(N(C)C)=N1	1.08
CCCCC(=O)NC(NC(=S)N1CCCCCC1)C(Cl)(Cl)Cl (stereo not given)	-0.591
CCc1ccc(OCC(=O)NC(NC(=S)Nc2ccccc2)C(Cl)(Cl)Cl)cc1 (stereo not given)	-0.00519
Cc1ccc(S(=O)(=O)N2CCN(C(=O)COC(=O)COc3ccccc3)CC2)cc1	-0.0706
COc1ccc(N/C=C/C(=O)c2ccc(C)cc2)c([N+](=O)[O-])c1	-0.0506
CCOC(=O)C1CCCN(C(=O)Cc2ccc(OC)c(OC)c2)C1 (stereo not given)	0.106
O=C(c1ccccc1Oc1ccc(C(F)(F)F)cc1[N+](=O)[O-])N1CCOCC1	-0.308
Cc1c(-n2c(CN3C(=O)c4ccccc4C3=O)nc3ccccc3c2=O)c(=O)n(-c2ccccc2)n1C	0.0572
O=C(CSc1nnc(C2CC2)n1Cc1ccccc1)NCc1ccccc1	-0.164
COC(=O)c1cc(OC)c(OC)cc1NC(=S)N1CCN(C/C=C/c2ccccc2)CC1	-0.713

From PubChem BioAssay AID488969 (Vanderbilt High Throughput Screening Facility, 2010)
